This is one part of the list.

The record followed here is publication PMC12136788.

B1: chr2:24000049:24000165:+|3pUTR|ENSG00000173960|unk|FALSE|unique (ssRNA)
RNA: GGGAGUUCUACAGUCCGACGAUCGUAGCAUAUGACUGGAAACUAUAUUCAGUGCACUUUCUCCAAAAGACUACCCAGAAAAAUAGACUUAUUUUCAAAUACCAGUUAUCAAGAUAUAUUAAAUAGCUGUAUUGUUUAGAAUCUCAACAGAGGAUUGAGCAUCA
B2: chr7:88197266:88197367:+|3pUTR|ENSG00000008277|unk|FALSE|unique (ssRNA)
RNA: GGGAGUUCUACAGUCCGACGAUCCAAAACAUGUGAUAUCCCUUUAACCUGUGCACAGUCUGGAGGCAGUUUUAUUGAGUGAGUAGUUGAGUGAGAGAACAAAAUGCCCAGCAAAACUUCUGGCCUCCACAGUUUGCUGAUGCACAACAGAGGAUUGAGCAUCA
B3: chr11:2928445:2928542:-|3pUTR|ENSG00000181649|msi1_unk|total|mutant (ssRNA)
RNA: GGGAGUUCUACAGUCCGACGAUCAUUGGACUAUCUAAUAUCUAUGUAUUUAUUUCGCUGGUUCUUUGCCGUCACAUAUUUUACCGUCUUAAUAUCUUGUUUUUGCAUCACUGUGCCCAUUGCAAAUAAAUCACUUGGCCAGUUCAACAGAGGAUUGAGCAUCA
B4: chr16:57253408:57253449:+|3pUTR|ENSG00000102931|msi1_unk|FALSE|overlapping (ssRNA)
RNA: GGGAGUUCUACAGUCCGACGAUCUGUGUGGUAGAUUACUUAUCAGAAAACAUAUAUGUCAUCUCUAGAACGAAGAAAAAGCAUAGUAGUUCAAUUCCCAGUGUGUCCCUUUGAUUUUUUUUUUUUAAUAGUAAAAAUAAGAAUCAACAGAGGAUUGAGCAUCA
B5: chr6:109506326:109506547:-|CDS|ENSG00000155085|control|control|control (ssRNA)
RNA: GGGAGUUCUACAGUCCGACGAUCAAUAGUGCACAAAUUGUAGCUGUCAAUAAUGUAAAGUAUCGCAAAAAUAUUGGUGAGAUUAGGCAAUAUUAUCAAGAACAGCAUCAGAACUGGUAUGUGAUUGAUGGAUUUCACAGCAAACAACAGAGGAUUGAGCAUCA
B6: ENSG00000136451:be:win_2851|3pUTR|ENSG00000136451|bound_else_gene|NA|bound_elsewhere_windowed (ssRNA)
RNA: GGGAGUUCUACAGUCCGACGAUCAUUUUAUCUCUGUACAUAAAGUAGAAACCAAAAGCUAGGGAAACAGAUACUCUUUACACCAUCAUGCCACGCAUUGUUUUUAAAGCAUUGCGUUAAAAAAAAAAUUAACUAAACCAAGAUCAACAGAGGAUUGAGCAUCA
B7: chr2:25742488:25742589:-|CDS|ENSG00000143970|unk|total|mutant (ssRNA)
RNA: GGGAGUUCUACAGUCCGACGAUCCACUUUAAGUAAGGAGAAUUACCUGUUCACCCGAGGCCAAACAUUUGAUGAAAAGACCCCCGCCAGAGAUUUAAUUCAGGCAGCACAGAAGCAGAUGGCUCAUGCAGUGAGAGGUAAGGCCAACAGAGGAUUGAGCAUCA
B8: chr9:127087347:127088938:-|three_prime_utr|ENSG00000136859|control|control|control (ssRNA)
RNA: GGGAGUUCUACAGUCCGACGAUCAUAUACAUGUGUAUGAGCCUCCCUUGUGCACGUAUGUGUAUACCACAUAUAUAUGCAUUUAGAUAUACAUCACAUGUGAUAUAUCUAGAUCCAUAUAUAGGUUUGCCUUAGAUACCUAAACAACAGAGGAUUGAGCAUCA
B9: chr11:111720585:111720689:+|CDS|ENSG00000170145|unk|total|mutant (ssRNA)
RNA: GGGAGUUCUACAGUCCGACGAUCGUCUGUUCAGAGGGACCUGAACUUUCUGGAAGACAACCCUUCCCUUAAGGACAUCAUGUCCGCCAAUCAGCCUUCACCCCGCAUGACAUCUCCCUUCAUAAGCCUGAGACCUACCAACCCCAACAGAGGAUUGAGCAUCA
B10: chr8:41262982:41263083:-|3pUTR|ENSG00000104332|msi1|total|mutant (ssRNA)
RNA: GGGAGUUCUACAGUCCGACGAUCCAACCGGGCCCUCUCUCUGCGGCAGAGUCCUCCGUGGAGGGGUUUACCUGGAACAUCCGCCGUUACCACAGAAUACGGAAGAGCAGGUGACUGUGCUGUGCAGCUCUCUAAAUGGGAAUUCAACAGAGGAUUGAGCAUCA
B11: chrX:120613669:120613770:+|3pUTR|ENSG00000232119|msi1|FALSE|bound_elsewhere (ssRNA)
RNA: GGGAGUUCUACAGUCCGACGAUCUAUGCCUCCUGUAUAUCCUGUAAACAAAUAAGAUUGAUCAGAUUCAGGUUCAGUUUUUUUAGUGCCUUCUUUUGAGUAAAGUCAUACCAAACAGAUGCCCAGAACAUCUGGAUUUGGGUCCAACAGAGGAUUGAGCAUCA
B12: chr12:131960804:131960905:+|CDS|ENSG00000183495|unk|total|mutant (ssRNA)
RNA: GGGAGUUCUACAGUCCGACGAUCCCCUCAGCAAGCCCGUCGGCACCCCAGUCUCCCAGUUAUCAAAUACAGCAGCUGAUGAACCGGAGCCCUGCAACCGGGCAGAACGUGAACAUCACCCUGCAGAGCGUGGGCCCUGUCGUCCAACAGAGGAUUGAGCAUCA
B13: chr1:183252010:183252124:-|3pUTR|ENSG00000157064|unk|FALSE|unique (ssRNA)
RNA: GGGAGUUCUACAGUCCGACGAUCUCUUUGUUCACUCCCUGUAGAACUUGGAUGAAAUCAGUGUCCAUGGUUCUUUAUGUUUGUAGUCUUGAUGUGCUCCUGUGGUAUUACUUCCCCUCUGAUAGGACAUUGUAGCCAGCCUCACAACAGAGGAUUGAGCAUCA
B14: chr3:17009782:17009883:+|CDS|ENSG00000154822|unk|FALSE|unique (ssRNA)
RNA: GGGAGUUCUACAGUCCGACGAUCAAUUCAAUGGUUGAGGGUUCAGAACUCAAAAAGGUUCGCUCCAACUCUAGAAUUUAUCAUAGGUACUUUUUACUGGAUGCUGACAUGCAGAGCCUAAGGUGGGAGCCAUCUAAGAAGGAUCAACAGAGGAUUGAGCAUCA

The target in the assay is MSI1 full-length (mouse, UniProt Q61474 1-362). In words: nsRBNS (natural sequence RNA bind-n-seq); RBNS binding buffer (assumed for nsRBNS): 25 mM Tris pH 7.5, 150 mM KCl, 3 mM MgCl2, 0.01% Triton X-100, 500 ug/ml BSA, 20 U/ml SUPERase-In, 4 C; UNK is unkempt and MSI1 is Musashi-1; names of the RNAs are library labels; protein concentration not given here; high values mean tight binding.
UniProt Q61474, sequence (Q61474 whole entry): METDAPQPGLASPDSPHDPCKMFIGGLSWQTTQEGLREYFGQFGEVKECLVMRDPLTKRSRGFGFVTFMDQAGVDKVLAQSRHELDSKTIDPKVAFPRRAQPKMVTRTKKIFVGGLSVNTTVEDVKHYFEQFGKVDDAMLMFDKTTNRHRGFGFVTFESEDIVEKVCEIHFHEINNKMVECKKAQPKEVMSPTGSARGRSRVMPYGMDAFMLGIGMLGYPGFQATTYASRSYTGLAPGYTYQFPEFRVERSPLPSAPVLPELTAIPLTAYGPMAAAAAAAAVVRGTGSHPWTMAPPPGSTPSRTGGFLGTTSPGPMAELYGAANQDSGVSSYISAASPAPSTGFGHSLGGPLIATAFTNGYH
On to B1, for which the binding signal was 3.66 enrichment R.
Consider B2, for which the binding signal was 1.66 enrichment R.
Next, B3: 1.82 enrichment R; B4: 21 enrichment R.
B5 displayed a binding signal of 1.91 enrichment R.
B6 showed a binding signal of 8.02 enrichment R.
B7 returned a binding signal of 0.51 enrichment R.
Turning to B8, the binding signal was found to be 0.269 enrichment R.
With B9, the binding signal was 0.613 enrichment R.
B10 showed a binding signal of 0.416 enrichment R.
With B11, the binding signal is 0.755 enrichment R.
For the molecule B12, the binding signal came out at 0.583 enrichment R.
For B13, the binding signal is 1.33 enrichment R.
In the case of B14, the binding signal is 1.02 enrichment R.
